The campaign covered roughly 270,000 compounds. About 5,800 (2.1%) were called active. The inconclusive results got no clear call from the source; some entries with a clear call stand among them for comparison. The call rests on the fitted dose curve; in most records, active means well fitted inhibition curve with a large enough effect; inconclusive means small, poorly fitted or top-dose-only effect; inactive means flat fitted curve, though single readings scatter. Where the call is inconclusive, the potency comes from a doubtful curve fit.
These compounds were tested against Microtubule-associated protein tau (Homo sapiens) (UniProt P10636) (assay: qHTS for Inhibitors of Tau Fibril Formation, Thioflavin T Binding). Conditions: recombinant tau K18 P301L (four-repeat tau fragment), heparin-induced fibrillization, ThT fluorescence; series mostly up to 57.4 µM; activity, negative = inhibition: at the top concentration.
Chain of UniProt P10636 (P10636 whole entry, looked up, the tested form may be a part): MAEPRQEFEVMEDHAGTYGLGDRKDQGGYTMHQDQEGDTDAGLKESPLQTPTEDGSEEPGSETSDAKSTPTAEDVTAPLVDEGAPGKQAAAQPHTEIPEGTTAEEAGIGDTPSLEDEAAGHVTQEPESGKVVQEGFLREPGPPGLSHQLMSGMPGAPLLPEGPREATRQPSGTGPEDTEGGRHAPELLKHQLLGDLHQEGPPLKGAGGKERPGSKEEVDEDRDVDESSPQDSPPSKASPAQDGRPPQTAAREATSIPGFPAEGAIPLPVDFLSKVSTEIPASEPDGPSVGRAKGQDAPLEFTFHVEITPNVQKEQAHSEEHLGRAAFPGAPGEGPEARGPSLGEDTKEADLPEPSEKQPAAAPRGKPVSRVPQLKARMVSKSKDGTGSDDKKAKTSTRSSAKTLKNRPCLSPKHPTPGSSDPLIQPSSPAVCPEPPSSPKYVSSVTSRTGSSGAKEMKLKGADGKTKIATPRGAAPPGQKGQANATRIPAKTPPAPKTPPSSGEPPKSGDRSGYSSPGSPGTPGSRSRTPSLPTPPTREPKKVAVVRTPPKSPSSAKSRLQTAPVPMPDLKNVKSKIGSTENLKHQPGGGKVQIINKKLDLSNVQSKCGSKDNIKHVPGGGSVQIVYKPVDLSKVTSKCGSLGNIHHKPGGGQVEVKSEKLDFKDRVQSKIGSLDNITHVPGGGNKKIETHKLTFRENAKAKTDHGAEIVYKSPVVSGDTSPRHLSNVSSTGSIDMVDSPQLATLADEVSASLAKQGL
How it was run: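 Aggregation was driven by heparin (20 uM final) acting on recombinant tau […] bearing P301L in 100 mM sodium acetate pH 7; fibrils were detected with Thioflavin T.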
Further: nearly all actives have a fitted effect of over 55% in size.
On the % scale 0 is the no-effect control and ±100 the full control effect; potency means the concentration at half of the fitted maximal effect; tags describe the fitted curve by direction and shape.

Row | Structure (SMILES) | activity, negative = inhibition | Potency
1 | S=C(NCCCn1ccnc1)Nc1ccc(Cl)cc1Cl | inactive: 0.983% | 
2 | N#Cc1ccccc1CSC1=NCCS1 | inactive: -7.05% | 
3 | S=c1[nH]nc(-c2cc(-c3ccccc3)n[nH]2)n1/N=C/C(Br)=C/c1ccccc1 |  | active: 17.8 µM
4 | CC1CCN(S(=O)(=O)c2ccc3c(c2)oc(=O)n3CC(=O)N2c3ccccc3CC2C)CC1 (stereo not given) | inactive: 0.775% | 
5 | CCN(CC)c1nc(C)c(C(=S)Nc2cc([N+](=O)[O-])ccc2Cl)s1 |  | inconclusive: 1.41 µM [inhibitor, full curve]
6 | CN(C)c1cccc(C(=O)Nc2cccc(F)c2)c1 |  | inconclusive: 39.8 µM [inhibitor, single point]
7 | c1cncc(-c2nc(-c3ccco3)cs2)c1 |  | inconclusive: 20 µM [inhibitor, partial curve]
8 | Cn1c(CC(=O)Nc2ccccc2)n[nH]c1=S | inactive: -2.58% | 
9 | COc1ccc(C(=O)COC(=O)CN2CC(=O)Oc3ccccc32)cc1Br |  | inconclusive: 39.8 µM [inhibitor, single point]
10 | COc1ccc2c(c1)Sc1ccccc1N2 |  | active: 10 µM
11 | COc1cc(OC)cc(-c2nc3nc(C)c(CCC(=O)Nc4ccc(C)cc4C)c(C)n3n2)c1 |  | inconclusive: 8.91 µM [inhibitor, partial curve]
12 | CSc1ncc(Cl)c(C(=O)N(Cc2ccc(C)cc2)C2CCS(=O)(=O)C2)n1 (stereo not given) | inactive: 7.56% | 
13 | Fc1ccc(-n2ncc3c(Nc4cccc(Cl)c4)ncnc32)cc1 |  | inconclusive: 20 µM [activator, partial curve]
14 | COc1ccccc1NC(=O)Cn1c(=O)c(CNc2ccccc2)cc2cc(OC)c(OC)cc21 |  | inconclusive: 8.91 µM [inhibitor, single point]
15 | CO[C@@H]1COC(=O)[C@@H](CCSC)NC(=O)C/C=C\[C@@H](C)COC(=O)CCC[C@H]1C | inactive: -2.79% [at 11.5 µM] | 
16 | COc1ccc2[nH]c(=O)c(C(c3nnnn3C(C)(C)C)N(Cc3ccco3)CC3CCCO3)cc2c1 (stereo not given) |  | inconclusive: 15.8 µM [inhibitor, partial curve]
17 | COc1ccc(NC(=O)c2nc[nH]c2C(=O)N2CCC(C)CC2)cc1 | inactive: -7.16% | 
18 | Cc1ccc2nc3sc(C(=O)N4CCCc5ccccc54)c(N)c3cc2c1 |  | inconclusive: 7.08 µM [inhibitor, partial curve]
19 | CCOc1ccc(NC(=O)N2CCN(c3ccc(Cl)c(Cl)c3)CC2)cc1 |  | inconclusive: 1 µM [inhibitor, full curve]
20 | COc1ccc2cc3c(N)nn(C(=O)c4ccccc4Cl)c3nc2c1 |  | inconclusive: 17.8 µM [inhibitor, partial curve, poor fit]

Reference: PubChem BioAssay AID1460 (National Center for Advancing Translational Sciences (NCATS), 2008)
